# From PubChem BioAssay AID2147 (National Center for Advancing Translational Sciences (NCATS), 2009)
# In all, about 230,000 compounds went through this assay and about 3,600 (1.6%) were called active. This list was built around the results that the source calls inconclusive (neither active nor inactive); the mix of calls is not that of the screen. The call rests on the fitted dose curve; in most records, active means well fitted inhibition curve with a large enough effect (not every such curve was filed as active); inconclusive means small, poorly fitted or top-dose-only effect, or another doubt; inactive means no such curve, though single readings can be large or run the other way. A potency beside an inconclusive call is a rough fit, not a confirmed value.
# Molecular target: Lysine-specific demethylase 4E (Homo sapiens) (UniProt B2RXH2)
# Chain of UniProt B2RXH2 (B2RXH2 whole entry, looked up, the tested form may be a part): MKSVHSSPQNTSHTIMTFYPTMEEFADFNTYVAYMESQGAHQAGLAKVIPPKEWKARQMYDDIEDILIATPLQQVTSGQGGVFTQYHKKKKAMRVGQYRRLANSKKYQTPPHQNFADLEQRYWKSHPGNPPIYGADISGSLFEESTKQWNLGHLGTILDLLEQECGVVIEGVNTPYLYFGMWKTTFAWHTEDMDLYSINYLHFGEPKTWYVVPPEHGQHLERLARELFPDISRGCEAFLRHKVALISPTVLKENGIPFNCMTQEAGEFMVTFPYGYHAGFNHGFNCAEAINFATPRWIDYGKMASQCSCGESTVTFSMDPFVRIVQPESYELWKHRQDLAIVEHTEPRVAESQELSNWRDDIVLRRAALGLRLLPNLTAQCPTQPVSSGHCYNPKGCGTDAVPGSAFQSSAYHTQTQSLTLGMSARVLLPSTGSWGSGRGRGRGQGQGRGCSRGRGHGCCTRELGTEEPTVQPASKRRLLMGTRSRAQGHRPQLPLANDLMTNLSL
# Experiment: qHTS Assay for Inhibitors of Human Jumonji Domain Containing 2E (JMJD2E)
# Conditions: JMJD2E catalytic domain, FDH-coupled NADH fluorescence (FDH is formaldehyde dehydrogenase); series mostly up to 57.1 µM
# Further: nearly all actives have a fitted effect of over 50% in size.
# Potency means the concentration at half of the fitted maximal effect; tags describe the fitted curve by direction and shape.
row,SMILES,Potency
1,N#Cc1c(-c2ccco2)ccn(Cc2ccc(F)cc2)c1=O,"inconclusive: 22.4 µM [inhibitor, partial curve]"
2,Cc1ccc(-n2nc(C(=O)NCc3ccc(C)o3)c3c4ccccc4n(C)c3c2=O)cc1,"inconclusive: 14.1 µM [inhibitor, partial curve]"
3,O=C(CCNc1ccc(F)cc1)c1ccco1,inactive
4,COc1cccc(/C=N/NC(=O)C(=O)N/N=C/c2cccc(OC)c2OC)c1OC,"inconclusive: 28.2 µM [inhibitor, single point]"
5,CN(C)c1cccc(C(=O)OCC(=O)Nc2ccccc2-c2ccccc2)c1,"inconclusive: 31.6 µM [inhibitor, single point]"
6,O=S(=O)(Nc1ccc(S(=O)(=O)N2CCCCC2)cc1)c1ccc(Br)s1,inactive
7,Cc1ccc(-c2cc(C(=O)O)c3cc(Br)ccc3n2)o1,"inconclusive: 22.4 µM [inhibitor, partial curve]"
8,COc1ccccc1OCCn1cc(C(=O)c2ccco2)c2ccccc21,"inconclusive: 39.8 µM [inhibitor, partial curve]"
9,COc1c2c(cc3c1C(c1c(O)c4ccccc4oc1=O)N(C)CC3)OCO2 (stereo unspecified),"inconclusive: 35.5 µM [inhibitor, single point]"
10,COC(=O)c1ccc(NC(=O)CN(Cc2ccc(Cl)cc2)S(C)(=O)=O)cc1,inactive
11,O=C(/C=C/c1ccc2c(c1)OCO2)NCc1ccncc1,"inconclusive: 25.1 µM [inhibitor, partial curve]"
12,COC(=O)c1ccccc1NC(=O)Nc1cccnc1,"inconclusive: 35.5 µM [inhibitor, single point]"
13,OCCN1CCN(C(=S)c2ccc(Br)cc2)CC1,inactive
14,CCn1cc(CN2CCc3c([nH]c4ccccc34)C2c2ccc(F)c(OC)c2)c(C)n1 (stereo unspecified),"inconclusive: 31.6 µM [inhibitor, partial curve]"
15,O=C(NCc1ccc(F)cc1)c1c2c(nc3ccccc13)CCC2,"inconclusive: 35.5 µM [inhibitor, single point]"
16,CCOC(=O)C1CCCCN1Cc1ccccc1C(F)(F)F (stereo unspecified),"inconclusive: 39.8 µM [inhibitor, single point]"
17,CCCNC(=O)c1cc2ccccc2c(=O)o1,"inconclusive: 25.1 µM [inhibitor, partial curve]"
18,Cc1cc(C)c2c(n1)sc1c(=O)n(-c3ccccc3)c(=O)[nH]c12,"inconclusive: 28.2 µM [inhibitor, partial curve]"
19,Cc1cccc(-n2ncc3c(NCc4ccccn4)ncnc32)c1,"inconclusive: 20 µM [inhibitor, partial curve]"
20,N#CCc1nc(-c2cc3ccccc3oc2=O)cs1,"inconclusive: 31.6 µM [inhibitor, partial curve]"
21,Fc1ccc(NC(=S)NCc2ccccc2Cl)cc1,inactive
22,CCOC(=O)c1ccc(NC(=O)c2nn(C)cc2Br)cc1,"inconclusive: 39.8 µM [inhibitor, single point]"
23,COc1cccc(OCCNc2cc(Cl)ccc2[N+](=O)[O-])c1,inactive

row,SMILES,Potency
1,Cc1ccc(N2CSC3=C(C#N)C(c4cccs4)CC(=O)N3C2)cc1 (stereo unspecified),"inconclusive: 35.5 µM [inhibitor, single point]"
2,COc1ccc(-c2nnc(OCc3ccccc3)c3ccccc23)cc1,inactive
3,CCOC(=O)CC(=O)CSc1nc2c(cc1C#N)CCCCCC2,"inconclusive: 28.2 µM [inhibitor, partial curve]"
4,CC(=O)CSc1nc2cc3c(cc2cc1C#N)OCCO3,"inconclusive: 31.6 µM [inhibitor, single point]"
5,O=c1[nH]c(/C=C/c2ccccc2OC(F)F)nc2c1cnn2-c1ccccc1,"inconclusive: 0.794 µM [inhibitor, single point]"
6,Cc1sc2nc(CSc3ccccc3)nc(NCCN(C)C)c2c1C,"inconclusive: 39.8 µM [inhibitor, single point]"
7,COc1ccc(-c2ccc([C@H]3[C@H]4C=CC[C@@H](C)[C@@H]4C(=O)N3Cc3ccccc3)c(F)c2)cc1C,"inconclusive: 35.5 µM [inhibitor, single point]"
8,O=C(Cn1cnc2cc([N+](=O)[O-])ccc2c1=O)NCCc1ccc(F)cc1,inactive
9,c1ccc2sc(SN3CCOCC3)nc2c1,active: 12.6 µM
10,COC(=O)c1ccc(C2C3=C(Nc4nnnn42)c2ccccc2OC3)cc1 (stereo unspecified),"inconclusive: 35.5 µM [inhibitor, single point]"
11,CCn1c(-c2ccccc2)csc1=Nc1ccc(O)cc1,inactive
12,CCOC(=O)C1CCCN(CCC(=O)Nc2ccccc2)C1 (stereo unspecified),inactive
13,COc1cc(/C=C/C(=O)Nc2nc3ccc(S(=O)(=O)N(C)C)cc3s2)cc(OC)c1OC,"inconclusive: 7.08 µM [inhibitor, partial curve]"
14,CCC(=O)Nc1ccc(NC(=O)CSc2nnnn2-c2ccc3c(c2)OCCO3)cc1,inactive
15,O=C(Nc1ccccc1Cl)Oc1ccc2ccccc2c1,"inconclusive: 35.5 µM [inhibitor, single point]"
16,C#CCNc1nc(CC)nc2c1nnn2Cc1ccccc1F,inactive
17,O=S(=O)(Nc1nccs1)c1cc(Cl)ccc1Cl,inactive
18,C/C(=C\C(=O)c1ccc(Cl)cc1)NCc1ccc2c(c1)OCO2,"inconclusive: 39.8 µM [inhibitor, single point]"
19,COC(=O)c1sc(NC(=O)CSc2nnnn2-c2cccc(OC)c2)nc1C,inactive
20,CCn1c(C)cc(/C=C2\NC(=O)N(Cc3ccc(Cl)cc3)C2=O)c1C,"inconclusive: 39.8 µM [inhibitor, single point]"
21,Clc1ccc2c(N/N=C/c3cccc(Br)c3)ccnc2c1,"inconclusive: 39.8 µM [inhibitor, single point]"
22,CCOCCCn1c(=NC(=O)c2ccc(OC)c(OC)c2)c(C#N)cc2c(=O)n3cccc(C)c3nc21,"inconclusive: 10 µM [inhibitor, partial curve]"
23,CCCCCn1c2nc3ccccc3nc2c2c(=O)n(CC3CCCO3)c(C)nc21 (stereo unspecified),"inconclusive: 6.31 µM [inhibitor, partial curve]"
